Among all 390,000 compounds or so, about 930 (0.24%) were called active. This list was built around the results that the source calls inconclusive (neither active nor inactive); the mix of calls is not that of the screen. The call rests on the fitted dose curve; in most records, active means well fitted activation curve with a large enough effect; inconclusive means small, poorly fitted or top-dose-only effect; inactive means no such curve, though single readings can be large or run the other way. A potency beside an inconclusive call is a rough fit, not a confirmed value.
Assay: qHTS for Suppressors of FUS Proteinopathy: Primary screen using FUS-linked yeast assay; further: nearly all actives have a fitted effect of over 55% in size;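 on growth rescue (activation): plate controls were DMSO vehicle for no effect and reference control for full effect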
Details: S. cerevisiae FUS-expressing, OD600, 24 h; Potency: growth rescue; growth rescue (activation): at 76.6 µM (top of the series)
Method in brief: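 Read-out: OD at 600 nm after 24hr at 30C, reporting rescue of FUS-induced yeast toxicity. Cells at OD 0.005 in galactose (2%) minimal medium; compounds tested in a dilution series; CP55940 titration from 92uM final as control.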
With `C[C@@H]1CCCCO[C@H](CN(C)S(=O)(=O)c2ccc(F)cc2)[C@@H](C)CN([C@H](C)CO)C(=O)c2cc(NC(=O)Nc3ccc(C(F)(F)F)cc3)ccc2O1` the Potency was inconclusive: 28.2 µM [activator, single point]. In the case of `Cc1nc(Oc2ccc(S(=O)(=O)N3CCOCC3)cc2Cl)c2c3c(sc2n1)CCCC3`, the Potency is reported as inconclusive: 8.91 µM [activator, partial curve]. In the case of `Cc1ccc(-n2c(=O)c3c4c(sc3n(Cc3cc(=O)n5ccccc5n3)c2=O)CCC4)cc1C`, the “growth rescue (activation)” value is reported as inactive: 11.5%. For `COc1ccc(CNC(=O)Cn2ccc3cc(S(=O)(=O)N4CCCCC4)ccc32)cc1OC`, the “growth rescue (activation)” value was inactive: -3.18%. With `COc1ccc(-n2cc(COC(=O)NCCc3ccccc3)nn2)cc1` the “growth rescue (activation)” value was inactive: 9.51%. With `COC(=O)[C@@]1(Cc2ccc(F)cc2)[C@H]2c3cc(C(=O)N(C)C)n(CCCNc4ncc(C(F)(F)F)cc4Cl)c3C[C@H]2CN1C(=O)c1ccccc1` the Potency was inconclusive: 12.6 µM [activator, partial curve]. With `CCOC(=O)c1oc2ccccc2c1CN1CCN(C)CC1` the Potency was inconclusive: 44.7 µM [activator, partial curve, poor fit]. With `CC1(C(=O)NCc2ccccc2Br)CCN1C(=O)Cc1ccc(-c2ccccc2)cc1` (stereo not drawn) the Potency was inconclusive: 35.5 µM [activator, single point]. In the case of `C=CC[C@H](CC(=O)N(CCO)Cc1ccccc1)C(=O)N[C@H](COC(=O)[C@H](CC=C)CC(=O)OC(C)(C)C)Cc1c[nH]c2ccccc12`, the Potency is reported as inconclusive: 11.2 µM [activator, partial curve, poor fit]. In the case of `COc1ccc(-n2cc(C(=O)NCCc3cc(OC)ccc3OC)c3ccccc3c2=O)cc1`, the “growth rescue (activation)” value is reported as inactive: 35.3%. With `CCC(C(=O)Nc1cccc(-c2nc3cccnc3s2)c1C)c1ccccc1` (stereo not drawn) the “growth rescue (activation)” value was inactive: -6.93%. For `Cc1cc(C)n2c3c(c(C#N)c2n1)CC(C)(C)OC3`, the “growth rescue (activation)” value was inactive: 4.22%. In the case of `CSCCC(C(=O)OCC(=O)c1ccc(C)c(C)c1)N1C(=O)c2cc(Cl)c(Cl)cc2C1=O` (stereo not drawn), the growth rescue (activation) is reported as inconclusive: 83.5% [activator]. In the case of `O=C(CSc1nnc(Cc2cccs2)n1-c1ccccc1)Nc1ccccc1-c1ccccc1`, the Potency is reported as inconclusive: 12.6 µM [activator, partial curve, poor fit]. In the case of `COc1ccc(NC(=O)CN(C)C(=O)c2cccc(NS(=O)(=O)c3ccc(Br)cc3)c2)cc1`, the Potency is reported as inconclusive: 28.2 µM [activator, single point]. With `S=C(NCCCc1cnc[nH]1)NCCCN(Cc1ccc(Cl)c(Cl)c1)c1ccc(Br)cn1` the Potency was inconclusive: 50.1 µM [activator, single point]. In the case of `COc1ccc(NC(=O)c2cn(-c3ccccc3)nc2-c2cc3ccccc3o2)cc1`, the “growth rescue (activation)” value is reported as inactive: 54.5%. For `Cc1cc(Cl)ccc1OCCCC(=O)Nc1cccnc1`, the Potency was inconclusive: 11.2 µM [activator, partial curve, poor fit]. For `COc1ccc([C@@H]2[C@@H]3C(=O)N(C(C)(C)C)C(=O)[C@@H]3[C@]3(C)C(=O)N(c4cccc(Br)c4)C(=O)N23)cc1`, the Potency was inconclusive: 28.2 µM [activator, single point]. With `CC1(C(=O)NCc2ccc(F)cc2)Oc2ccccc2NC1=O` (stereo not drawn) the “growth rescue (activation)” value was inactive: 4.86%. For `CC(C)NC(=O)c1sc2nc(-c3cccs3)cc(-c3cccs3)c2c1N`, the Potency was inconclusive: 20 µM [activator, partial curve, poor fit]. In the case of `Cc1cccc(C)c1-n1nnnc1C(c1cccc2ccccc12)N1CCN(C/C=C/c2ccccc2)CC1` (stereo not drawn), the Potency is reported as inconclusive: 14.1 µM [activator, partial curve]. For `CCc1ccccc1NS(=O)(=O)c1ccc2c(c1)CC(=O)N2`, the “growth rescue (activation)” value was inactive: 6.47%. With `COc1ccc(N2CCN(C(=O)CCN3C(=O)c4ccccc4S3(=O)=O)CC2)cc1` the Potency was inconclusive: 8.91 µM [activator, partial curve]. For `O=C(c1cccc(C(=O)N2CCN(c3ccccc3F)CC2)c1)N1CCN(c2ccccc2F)CC1`, the growth rescue (activation) was inconclusive: 70% [activator]. In the case of `COc1ccc(C(NC(=O)CN2C(=O)NC3(CCc4ccccc43)C2=O)c2ccc(OC)cc2)cc1` (stereo not drawn), the Potency is reported as inconclusive: 28.2 µM [activator, partial curve, poor fit]. With `Cc1ccc(NC(=O)C2CCCN(C(=O)c3cnn(-c4ccc(F)cc4)c3-n3cccc3)C2)c(Cl)c1` (stereo not drawn) the “growth rescue (activation)” value was inactive: 13.5%. For `CN(CCCNC(=O)C1CCC(=O)N1Cc1ccccc1Cl)c1ccccc1` (stereo not drawn), the growth rescue (activation) was inconclusive: 52.2% [activator]. For `O=C1CCCC2=C1C(c1cccs1)Nc1ccc3ncccc3c12` (stereo not drawn), the “growth rescue (activation)” value was inactive: 16.2%. For `Cc1cc(C)n(-c2ccc(S(=O)(=O)N3CCOCC3)cc2[N+](=O)[O-])n1`, the “growth rescue (activation)” value was inactive: 17.5%. With `CCCCN(CC)C(=O)c1nn(C)c2c1CSc1ccccc1-2` the “growth rescue (activation)” value was inactive: 13.3%. For `Cc1ccc(COc2ccccc2-c2cc(C(=O)N/N=C/c3cccnc3)[nH]n2)cc1`, the Potency was inconclusive: 28.2 µM [activator, partial curve, poor fit]. With `O=C(NN=Cc1ccco1)c1cccnc1` the “growth rescue (activation)” value was inactive: 13.3%. In the case of `Cc1cccc(N2CCN(C(=O)COc3ccc4c(c3)CCC4)CC2C)c1` (stereo not drawn), the Potency is reported as inconclusive: 22.4 µM [activator, partial curve, poor fit]. For `CC(C)(C)NC(=O)C(c1ccc(-c2ccccc2)cc1)N(C[C@H]1CC[C@@H]([C@@H]2CC[C@H](CO)O2)O1)C(=O)c1ccc(C(C)(C)C)cc1` (stereo partly drawn), the Potency was inconclusive: 12.6 µM [activator, partial curve, poor fit]. For `O=C(NCc1cccs1)c1ccc2c(c1)N(Cc1cccc(F)c1)C(=O)c1ccccc1S2`, the Potency was inconclusive: 7.94 µM [activator, partial curve]. In the case of `O=C(C1CCCN(S(=O)(=O)c2cccc3nsnc23)C1)N1CCN(c2ccccc2)CC1` (stereo not drawn), the “growth rescue (activation)” value is reported as inactive: 37.4%. For `CCc1ccc(NC(=O)CN(c2ccc(Cl)cc2)S(=O)(=O)c2ccsc2C(=O)OC)cc1`, the Potency was inconclusive: 39.8 µM [activator, partial curve, poor fit]. In the case of `CCCCc1ccc2nc(NC(=O)c3cccs3)sc2c1`, the “growth rescue (activation)” value is reported as inactive: 12.3%. With `c1coc(Cn2c(SCc3nc4ccccc4[nH]3)nnc2-c2cnccn2)c1` the Potency was inconclusive: 22.4 µM [activator, partial curve, poor fit]. With `CCCCOc1ccc(C(=O)N/N=C/c2cn[nH]c2-c2ccc(OC)c(OC)c2)cc1` the Potency was inconclusive: 31.6 µM [activator, single point]. For `CCCCCc1cc(=O)oc2c(C(CCN3CCCC3)c3cc(OC)c(OC)c(OC)c3)c(OC)cc(OC)c12` (stereo not drawn), the Potency was inconclusive: 12.6 µM [activator, partial curve]. With `CS(=O)(=O)c1ccc(Cl)c(NC(=O)C2CC(=O)N(c3ccc4c(c3)OCCO4)C2)c1` (stereo not drawn) the Potency was inconclusive: 50.1 µM [activator, single point]. For `O=C(O)c1sc2cc(C(F)(F)F)cnc2c1-c1ccccc1`, the growth rescue (activation) was inconclusive: 45.3% [activator]. For `CCOc1ccc(NS(=O)(=O)c2ccc(C(=O)N(C)C)s2)cc1`, the “growth rescue (activation)” value was inactive: 0.82%. For `Cc1cc(Cl)ccc1OCC(=O)Nc1ccccc1N1CCOCC1`, the “growth rescue (activation)” value was inactive: 8.66%. In the case of `CC1CC(C)CN(S(=O)(=O)c2cc3c4c(c2)C(C)C(=O)N4CCC3)C1` (stereo not drawn), the Potency is reported as inconclusive: 7.08 µM [activator, partial curve]. In the case of `COc1ccc(OC)c(C2=NOC(C(=O)N3CCN(c4ccccc4)CC3)C2)c1` (stereo not drawn), the Potency is reported as inconclusive: 25.1 µM [activator, single point]. In the case of `CCC(Sc1nc2ccccc2s1)C(=O)Nc1nnc(C)s1` (stereo not drawn), the Potency is reported as inconclusive: 50.1 µM [activator, single point]. In the case of `Cc1cc(-c2cn3ccccc3n2)c(C)n1-c1ccccc1`, the Potency is reported as inconclusive: 22.4 µM [activator, partial curve, poor fit]. In the case of `Cc1cc2c(OCC(O)CNCc3ccco3)cccc2[nH]1` (stereo not drawn), the Potency is reported as inconclusive: 50.1 µM [activator, partial curve, poor fit]. For `C=CC[C@@H](Cc1ccc(F)cc1)C(=O)OC[C@@H]1CCCN1C(=O)[C@H](CC=C)CC(=O)N[C@H](CO)Cc1ccccc1`, the Potency was inconclusive: 28.2 µM [activator, single point]. For `C[C@H]1COC2=C1C(=O)C(=O)c1c2ccc2c1CCCC2(C)C`, the “growth rescue (activation)” value was inactive: 1.36%. With `N#C/C(=C(/O)COC(=O)Cc1c[nH]c2ccccc12)c1nc2ccccc2[nH]1` the Potency was active: 35.5 µM. In the case of `Cc1ccc(C(C)C)c(OCc2nn(CC(=O)c3ccc(OC(F)F)cc3)c3[n+]2CCCCC3)c1`, the Potency is reported as inconclusive: 22.4 µM [activator, partial curve, poor fit]. For `COc1cc(/C=N/NC(=O)CC23CC4CC(CC(C4)C2)C3)cc(Br)c1OCC(=O)N(C)C`, the Potency was inconclusive: 28.2 µM [activator, single point]. With `CCCCNC(=O)C[C@@H]1C[C@@]2(C(=O)OC)CC(C)(C)CC=C2N(Cc2ccc3c(c2)OCO3)C1=O` the Potency was inconclusive: 8.91 µM [activator, partial curve]. With `COc1cc(/C=N/NC(=O)C(Cc2c[nH]c3ccccc23)NC(=O)OCC(C)C)cc([N+](=O)[O-])c1O` (stereo not drawn) the Potency was inconclusive: 50.1 µM [activator, single point]. In the case of `CCCn1c(CCC(=O)Nc2cc(OC)cc(OC)c2)nc2cccnc21`, the “growth rescue (activation)” value is reported as inactive: 8.49%. For `Cn1c(=O)c2c([nH]c(=S)n2CCCc2ccccc2)n(C)c1=O`, the “growth rescue (activation)” value was inactive: 29%. With `O=C1CCC(OCc2ccccc2)CCN1CC[C@@H](Sc1ccccc1)c1ccccc1` (stereo partly drawn) the Potency was inconclusive: 10 µM [activator, full curve]. With `CCn1c(SCC(=O)Nc2ccccc2-c2ccccc2)nnc1-c1ccc(C)cc1` the “growth rescue (activation)” value was inactive: 38.8%. In the case of `CCOC(=O)c1ccc(N2C(=O)c3[nH]nc(-c4ccc(C)cc4)c3C2c2cccs2)cc1` (stereo not drawn), the Potency is reported as inconclusive: 25.1 µM [activator, single point].
Potency means the concentration at half of the fitted maximal effect; tags describe the fitted curve by direction and shape.
